Experimental data published in US20050147610A1 (AbbVie / Abbott, published 2005).

How the values were obtained:
[1] = target: natural human IL-18 (endogenous, human whole blood) (human, UniProt Q14116 37-193); assay: cell-based or functional assay
[2] = target: T1, NEM-huIL-18 (recombinant mature human IL-18 treated with N-ethyl maleiamide) (human, UniProt Q14116 37-193, cysteines protected with N-ethyl maleiamide (NEM)); assay: cell-based or functional assay
recombinant human IL-4 = target: T2, recombinant human IL-4 (human, UniProt P05112 25-153); assay: BIACORE, antibody captured, cytokine in solution
T2 sequence (looked up): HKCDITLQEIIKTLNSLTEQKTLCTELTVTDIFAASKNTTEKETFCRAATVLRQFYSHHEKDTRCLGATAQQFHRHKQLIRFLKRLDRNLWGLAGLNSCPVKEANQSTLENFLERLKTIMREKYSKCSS

recombinant human LTα2β1 = target: T3, recombinant human LTα2β1 (human, UniProt P01374 35-205; Q06643 49-244, limits assumed); assay: BIACORE, antibody captured, cytokine in solution
T3 construct: Copies read from the printed name
T3 sequence (looked up) 1: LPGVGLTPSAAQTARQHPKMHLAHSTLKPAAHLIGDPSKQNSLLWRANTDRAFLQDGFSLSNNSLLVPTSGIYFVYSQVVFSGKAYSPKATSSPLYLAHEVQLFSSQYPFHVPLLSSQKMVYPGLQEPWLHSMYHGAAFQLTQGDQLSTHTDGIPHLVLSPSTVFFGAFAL
T3 sequence (looked up) 2: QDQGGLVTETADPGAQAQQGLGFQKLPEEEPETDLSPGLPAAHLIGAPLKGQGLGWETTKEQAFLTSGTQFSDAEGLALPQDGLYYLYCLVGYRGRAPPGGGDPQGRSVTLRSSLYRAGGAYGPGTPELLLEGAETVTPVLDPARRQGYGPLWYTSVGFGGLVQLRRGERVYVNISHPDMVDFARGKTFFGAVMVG

recombinant human IL-11 = target: T4, recombinant human IL-11 (human, UniProt P20809 22-199); assay: BIACORE, antibody captured, cytokine in solution
T4 sequence (looked up): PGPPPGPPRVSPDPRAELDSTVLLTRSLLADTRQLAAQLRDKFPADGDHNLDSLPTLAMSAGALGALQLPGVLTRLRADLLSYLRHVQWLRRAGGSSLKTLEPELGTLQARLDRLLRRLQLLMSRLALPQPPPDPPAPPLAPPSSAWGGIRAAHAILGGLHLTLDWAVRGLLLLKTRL

recombinant human IL-9 = recombinant human IL-9 (human, UniProt P15248); assay: BIACORE, antibody captured, cytokine in solution
Chain of recombinant human IL-9 (P15248 19-144 limits assumed): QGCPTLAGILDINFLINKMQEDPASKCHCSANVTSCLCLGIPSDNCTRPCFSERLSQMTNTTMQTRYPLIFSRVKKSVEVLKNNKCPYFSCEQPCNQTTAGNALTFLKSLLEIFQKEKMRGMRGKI

recombinant human IL-3 = target: T5, recombinant human IL-3 (human, UniProt P08700 20-152); assay: BIACORE, antibody captured, cytokine in solution
T5 sequence (looked up): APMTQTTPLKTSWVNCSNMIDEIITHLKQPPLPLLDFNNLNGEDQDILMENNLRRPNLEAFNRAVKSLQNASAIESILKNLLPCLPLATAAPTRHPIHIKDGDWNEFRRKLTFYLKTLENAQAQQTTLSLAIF

recombinant human IFNγ = target: T6, recombinant human IFNγ (human, UniProt P01579 24-166, limits assumed); assay: BIACORE, antibody captured, cytokine in solution
T6 sequence (looked up): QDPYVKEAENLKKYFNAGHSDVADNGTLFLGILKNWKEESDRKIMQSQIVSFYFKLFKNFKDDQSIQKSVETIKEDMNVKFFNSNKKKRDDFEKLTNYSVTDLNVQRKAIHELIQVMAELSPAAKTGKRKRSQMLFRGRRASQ

recombinant human IL-7 = target: T7, recombinant human IL-7 (human, UniProt P13232 26-177); assay: BIACORE, antibody captured, cytokine in solution
T7 sequence (looked up): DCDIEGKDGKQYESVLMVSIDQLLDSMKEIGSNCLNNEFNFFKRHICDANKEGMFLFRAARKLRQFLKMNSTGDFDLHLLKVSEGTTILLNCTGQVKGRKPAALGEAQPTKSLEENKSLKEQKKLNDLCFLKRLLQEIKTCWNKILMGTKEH

recombinant human TNF = recombinant human TNF (human, UniProt P01375 fragment); assay: BIACORE, antibody captured, cytokine in solution
Chain of recombinant human TNF (P01375 77-233 limits assumed): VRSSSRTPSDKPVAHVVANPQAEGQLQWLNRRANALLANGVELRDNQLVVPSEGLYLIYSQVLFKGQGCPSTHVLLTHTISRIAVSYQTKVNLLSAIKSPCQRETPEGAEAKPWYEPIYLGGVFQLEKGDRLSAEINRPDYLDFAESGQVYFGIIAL

recombinant human LTα1β2 = target: T8, recombinant human LTα1β2 (human, UniProt P01374 35-205; Q06643 49-244, limits assumed); assay: BIACORE, antibody captured, cytokine in solution
T8 construct: Copies read from the printed name
T8 sequence (looked up) 1: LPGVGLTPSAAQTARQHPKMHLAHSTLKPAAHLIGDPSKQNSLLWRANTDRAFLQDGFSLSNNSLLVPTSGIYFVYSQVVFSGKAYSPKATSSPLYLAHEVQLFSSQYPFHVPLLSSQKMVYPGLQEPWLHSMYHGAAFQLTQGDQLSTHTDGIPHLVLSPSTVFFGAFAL
T8 sequence (looked up) 2: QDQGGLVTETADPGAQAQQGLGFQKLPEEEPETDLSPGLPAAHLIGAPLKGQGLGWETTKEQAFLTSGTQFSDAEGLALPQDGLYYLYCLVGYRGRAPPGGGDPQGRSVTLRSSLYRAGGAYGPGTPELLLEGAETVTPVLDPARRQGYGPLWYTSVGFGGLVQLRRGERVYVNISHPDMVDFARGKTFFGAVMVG

recombinant human IL-1α = target: T9, recombinant human IL-1α (human, UniProt P01583 113-271); assay: BIACORE, antibody captured, cytokine in solution
T9 sequence (looked up): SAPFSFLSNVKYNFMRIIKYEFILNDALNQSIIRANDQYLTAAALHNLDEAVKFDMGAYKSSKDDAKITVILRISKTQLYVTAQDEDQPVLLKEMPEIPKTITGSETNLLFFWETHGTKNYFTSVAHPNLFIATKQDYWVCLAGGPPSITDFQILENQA

recombinant human IL-6 = recombinant human IL-6 (human, UniProt P05231 30-212); assay: BIACORE, antibody captured, cytokine in solution
Chain of recombinant human IL-6 (P05231 30-212 limits assumed): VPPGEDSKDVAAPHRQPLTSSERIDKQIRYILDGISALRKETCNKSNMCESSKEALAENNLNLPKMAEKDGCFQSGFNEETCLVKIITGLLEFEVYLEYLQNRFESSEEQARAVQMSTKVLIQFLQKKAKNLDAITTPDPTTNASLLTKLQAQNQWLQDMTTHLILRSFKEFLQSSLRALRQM

[3] = target: T10, recombinant human LT (lymphotoxin) (human, UniProt P01374 35-205, limits assumed); assay: BIACORE, antibody captured, cytokine in solution
T10 sequence (looked up): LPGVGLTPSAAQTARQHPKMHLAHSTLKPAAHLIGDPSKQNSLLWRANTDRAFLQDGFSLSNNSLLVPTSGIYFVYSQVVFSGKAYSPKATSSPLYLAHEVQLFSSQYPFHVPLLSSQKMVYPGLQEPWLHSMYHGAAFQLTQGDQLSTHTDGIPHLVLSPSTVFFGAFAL

recombinant human IL-10 = recombinant human IL-10 (human, UniProt P22301 19-178); assay: BIACORE, antibody captured, cytokine in solution
Chain of recombinant human IL-10 (P22301 19-178 limits assumed): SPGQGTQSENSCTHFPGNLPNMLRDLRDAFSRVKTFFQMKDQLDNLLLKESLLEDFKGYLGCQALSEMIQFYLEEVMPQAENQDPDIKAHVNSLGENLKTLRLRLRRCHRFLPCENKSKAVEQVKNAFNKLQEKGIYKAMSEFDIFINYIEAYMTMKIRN

recombinant human IL-1β = recombinant human IL-1β (human, UniProt P01584 117-269); assay: BIACORE, antibody captured, cytokine in solution
recombinant human IL-15 = recombinant human IL-15 (human, UniProt P40933 fragment); assay: BIACORE, antibody captured, cytokine in solution
Chain of recombinant human IL-15 (P40933 49-162 limits assumed): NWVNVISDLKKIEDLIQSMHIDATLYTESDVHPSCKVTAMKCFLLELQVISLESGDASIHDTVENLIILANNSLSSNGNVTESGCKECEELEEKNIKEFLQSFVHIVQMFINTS

recombinant human IL-2 = recombinant human IL-2 (human, UniProt P60568); assay: BIACORE, antibody captured, cytokine in solution
Chain of recombinant human IL-2 (P60568 21-153 limits assumed): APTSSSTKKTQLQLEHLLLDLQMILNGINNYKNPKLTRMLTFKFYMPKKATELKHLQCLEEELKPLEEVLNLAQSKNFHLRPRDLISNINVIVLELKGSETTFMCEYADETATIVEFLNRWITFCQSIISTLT

[4] = target: T11, (4C/A)-huIL-18 (4C/A mutant of mature human IL-18) (human, UniProt Q14116 37-193); assay: Biacore
T11 construct: All four Cys of mature IL-18 are changed to Ala; also called 4C/A mutant of IL-18; Cysteine > Alanine mutant BV derived rec. human IL-18

[5] = target: T1, NEM-huIL-18 (recombinant mature human …); assay: Biacore

B1: 2.5(E)mg1 (antibody, human IgG1, kappa, L234A L235A)
heavy: ZVQLVQSGTEVKKPGESLKISCKGSGYTVTSYWIGWVRQMPGKGLEWMGFIYPGDSETRYSPTFQGQVTISADKSFNTAFLQWSSLKASDTAMYYCARVGSGWYPYTFDIWGQGTMVTVSSASTKGPSVFPLAPSSKSTSGGTAALGCLVKDYFPEPVTVSWNSGALTSGVHTFPAVLQSSGLYSLSSVVTVPSSSLGTQTYICNVNHKPSNTKVDKKV[letters of human IgG1 Fc with changes not shown]
light: EIVMTQSPATLSVSPGERATLSCRASESISSNLAWYQQKPGQAPRLFIYTASTRATDIPARFSGSGSGTEFTLTISSLQSEDFAVYYCQQYNNWPSITFGQGTRLEIKRTVAAPSVFIFPPSDEQLKSGTASVVCLLNNFYPREAKVQWKVDNALQSGNSQESVTEQDSKDSTYSLSSTLTLSKADYEKHKVYACEVTHQGLSSPVTKSFNRGEC
notes: Human IgG1/kappa with L234A, L235A (mg1); also called 2.5(E)mg1 HuMAb; anti-IL-18 HuMAb 2.5(E)mg1
WBA (IC50, nM) [1]: 3 nM | KG-1 (IC50, nM) [2]: 0.2 nM | binding result (recombinant human IL-4): no binding (tested: 1 µM) | binding result (recombinant human LTα2β1): no binding (tested: 1 µM) | binding result (recombinant human IL-11): no binding (tested: 1 µM) | binding result (recombinant human IL-9): no binding (tested: 1 µM) | binding result (recombinant human IL-3): no binding (tested: 1 µM) | binding result (recombinant human IFNγ): no binding (tested: 1 µM) | binding result (recombinant human IL-7): no binding (tested: 1 µM) | binding result (recombinant human TNF): no binding (tested: 1 µM) | binding result (recombinant human LTα1β2): no binding (tested: 1 µM) | binding result (recombinant human IL-1α): no binding (tested: 1 µM) | binding result (recombinant human IL-6): no binding (tested: 1 µM) | binding result [3]: no binding (tested: 1 µM) | binding result (recombinant human IL-10): no binding (tested: 1 µM) | binding result (recombinant human IL-1β): no binding (tested: 1 µM) | binding result (recombinant human IL-15): no binding (tested: 1 µM) | binding result (recombinant human IL-2): no binding (tested: 1 µM) | Kd [4]: 200 pM | Kd [5]: 300 pM
